In this test the test system is 186277-243-T-J2-PDC multi-cell spheroid viability. In words: Anticancer human tumor 186277-243-T-J2-PDC patient-derived colon adenocarcinoma cell line growth inhibition [PI3K]. As to conditions: for IC50: compound alone; for viability, T/C: stronger effect = lower value. The text has this: Combinatorial screen of targeted agents with the PI3K inhibitors inavolisib, alpelisib, duvelisib, and copanlisib in multi-cell type tumor spheroids
A high-throughput screen of multi-cell type tumor spheroids was designed to identify active combinations of targeted small molecules and PI3K pathway inhibitors. Complex spheroids include a stromal component modeled by human endothelial cells (HUVEC) and fibroblasts modeled by human mesenchymal stem cells (MSCs). The concentration ranges selected for each drug and investigational agent were based upon clinically achievable concentrations if the clinical Cmax of the agent was known.
Compounds. The drugs and investigational agents: inavolisib (NSC800729), alpelisib (NSC765974), duvelisib (NSC772469), copanlisib (NSC816437), ipatasertib (NSC767898), afuresertib (NSC778305), talazoparib (NSC767125), sapanisertib (NSC764658), selumetinib (NSC741078), tovorafenib (DAY101, NSC766906), vemurafenib (NSC761431), ravoxertinib (NSC781343), sotorasib (NSC818433), MRTX1133 (NSC 836407), abemaciclib (NSC 768073), palbociclib (NSC758247), venetoclax (NSC 766270), SY5609 (NSC837396), enzalutamide (NSC755605), and darolutamide (NSC825331), were obtained from the National Cancer Institute (NCI) Developmental Therapeutics Program Chemical Repository. The FDA-approved anticancer drug set is available from the NCI Developmental Therapeutics Program. […] The stock solutions were prepared in dimethyl sulfoxide (DMSO, Sigma-Aldrich, St. Louis, MO, cat. D2650) at 800-fold the tested concentration and stored at -70 degrees C prior to their use. All drugs and investigational agents were tested over a range starting from a high concentration at or near the clinical Cmax and decreasing in half-log increments. If the clinical Cmax for an agent had not been determined, the highest concentration tested was 10 microM.
Cell Culture. All cells were maintained in an incubator at 37 degrees C and 5% CO2 with 95% humidity. The PDC lines were cultured according to standard operating procedures established by the NCI PDMR (https://pdmr.cancer.gov/sops/default.htm). All PDCs were thawed and cultured in Matrigel-coated flasks prepared with a working solution of 1X Ham's F-12 nutrient mix, without supplementation (Invitrogen, Waltham, MA, cat. 11765054), 100 U/mL penicillin-streptomycin (Invitrogen, cat. 15140122), and 2.5% Matrigel (Corning Inc., Corning, NY, cat. 354248) for the first three passages. The 354836-022-R-J1-PDC, 475296-252-R-J1-PDC, and 997726-040-R-J2-PDC lines were cultured in 6A media, which includes advanced DMEM/F-12 (Thermo Fisher Scientific, cat. 12634028), 10 mM HEPES (Thermo Fisher Scientific, cat. 15630080), 1X GlutaMAX supplement (Thermo Fisher Scientific, cat. 35050061), 0.1 mg/mL primocin (InvivoGen, San Diego, CA, cat. ant-pm-2), 10% defined fetal bovine serum, heat inactivated (HyClone Laboratories Inc., Logan, UT, cat. SH30070.03HI), 50% L-WRN conditioned media (ATCC, cat. CRL-3276), 1.25 mM N-Acetyl-L-cysteine (Sigma-Aldrich, cat. A9165), 10 mM nicotinamide (Sigma-Aldrich, cat. N0636), 1X B-27 supplement (Thermo Fisher Scientific, cat. 17504044), 1X N-2 supplement (Thermo Fisher Scientific, cat. 17502048), and 10 microM Y-27632 dihydrochloride (Tocris Bioscience, Bristol, United Kingdom, cat. 1254). The 624824-186-R-J2-PDC line was cultured in 6C/Colon 1B media, which includes all 6A media components plus 50 ng/mL human EGF recombinant protein (Thermo Fisher Scientific, cat. PHG0311). […]

Our source for the IC50 and viability, T/C values is PubChem BioAssay AID1963983 (Molecular Pharmacology Branch, DTP, NCI, 2024).

The source holds more than one record for some entries. This is not the full list of results. The source may hold further records. Results that share an entry are repeated measurements in other runs, samples, wells, individuals or studies.
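Note: spheroids exposed to compounds for seven days before viability reading.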

With `CC1(C)CCC(CN2CCN(c3ccc(C(=O)NS(=O)(=O)c4ccc(NCC5CCOCC5)c([N+](=O)[O-])c4)c(Oc4cnc5[nH]ccc5c4)c3)CC2)=C(c2ccc(Cl)cc2)C1`, the IC50 is reported as 4.15 µM, 4.45 µM, 5.05 µM, > 10 µM. Moreover, the viability, T/C (compound alone 3.16 µM) is on record as 64, 68.8, 85.3, 103%. The viability, T/C (compound alone 10 µM) is on record as 4.93, 5.53, 4, 102%.
In the case of `Cn1ncnc1[C@H]1c2n[nH]c(=O)c3cc(F)cc(c23)N[C@@H]1c1ccc(F)cc1`, for the setting “compound alone 0.0316 µM”, the viability, T/C is recorded as 109, 94.7, 114, 87%.
In the case of `CC(C)n1nc(-c2ccc3oc(N)nc3c2)c2c(N)ncnc21`, the viability, T/C (compound alone 0.01 µM) is recorded as 78.9, 106, 99.6, 96.4%.
As to `Cc1nc(NC(=O)N2CCCC2C(N)=O)sc1-c1ccnc(C(C)(C)C(F)(F)F)c1` (stereo not given), the viability, T/C (compound alone 0.0316 µM) was 107, 96.2, 117, 94.5, 103, 95.1, 87.5, 95.8%.
As for `CC(=O)c1c(C)c2cnc(Nc3ccc(N4CCNCC4)cn3)nc2n(C2CCCC2)c1=O`, the viability, T/C (compound alone 0.0316 µM) is 123, 121, 100, 94.1% and the viability, T/C (compound alone 0.1 µM) was 165, 120, 113, 117%.
Consider `CC(Nc1ccc2c(c1)OCCn1cc(N3C(=O)OCC3C(F)F)nc1-2)C(N)=O` (stereo not given), for which the viability, T/C (compound alone 0.0316 µM) was 96.6, 116, 98.5, 118, 96.1, 88.7, 107, 99.6%. Further, the IC50 (run of 05/08/2023) is listed as > 1 µM, 961 nM, 997 nM, 932 nM.

The term IC50 denotes the point on the concentration scale where inhibition reaches its midpoint. Usually viability, T/C stands for the result in the treated group divided by that in the control group, in per cent.
